Among all 94,000 compounds or so, about 6,200 (6.6%) were called active. This list was built around the results that the source calls inconclusive (neither active nor inactive); the mix of calls is not that of the screen. Calls follow the shape of the dose curve; as a rule, active = well fitted inhibition curve with a large enough effect; inconclusive = small, poorly fitted or top-dose-only effect; inactive = flat fitted curve, though single readings scatter. Potencies beside an inconclusive call are fits to weak or partial responses and may not hold up.
Test: Cytotoxic Profiling in HEK 293 Cell Line of Diverse Libraries Using Quantitative High-Throughput Screening; also: nearly all actives have a fitted effect of over 60% in size
Settings: HEK 293 viability, ATP luminescence (CellTiter-Glo), 48-72 h; activity change, negative = cytotoxicity: at 115 µM (top of the series) unless noted; series mostly up to 115 µM
Method in brief: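 Viability of HEK 293 cells, plated at 250 cells/well, was judged by cellular ATP after compound treatment for 48 or 72 hr. Luminescence was imaged 10 min after CellTiter-Glo addition at room temperature.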
For `Cc1cc(NC(=O)c2ccc(CN3CC[C@H](O)C3)cc2)ccc1F`, the Potency was inconclusive: 56.2 µM [inhibitor, partial curve, poor fit]. In the case of `CCN1C(=O)C2(CCN(C(=O)c3ccc(OC(C)C)cc3)CC2)c2ccccc21`, the Potency is reported as inconclusive: 50.1 µM [inhibitor, partial curve, poor fit]. In the case of `CN(C)CC1(O)CCCN(Cc2ccc(Oc3ccc(Cl)cc3)cc2)C1` (stereo not drawn), the Potency is reported as inconclusive: 20 µM [inhibitor, full curve, poor fit]. For `Cn1nccc1C(=O)N1CCCN(C(=O)C2CC2)c2ccccc21`, the “activity change, negative = cytotoxicity” value was inactive: -12.5%. For `Cc1nn(-c2ccccc2)c(Oc2ccc(F)cc2F)c1CCC(=O)NC(C)C`, the Potency was inconclusive: 89.1 µM [inhibitor, partial curve, poor fit]. For `CC1(C(=O)NCC2CC2)COCc2cnc(Nc3ccccc3)nc21` (stereo not drawn), the Potency was inconclusive: 89.1 µM [inhibitor, partial curve]. In the case of `COc1ccccc1N1CC2(C1)CN(c1ccccc1)C(=O)O2`, the Potency is reported as inconclusive: 112 µM [inhibitor, single point]. In the case of `O=C(NCCn1cccc1-c1nc(-c2ccc3c(c2)OCO3)no1)c1ccccc1Cl`, the Potency is reported as inconclusive: 79.4 µM [inhibitor, single point]. In the case of `CC(C)n1ccnc1CN1CCc2onc(-c3ccc(Cl)cc3)c2C1`, the Potency is reported as inconclusive: 50.1 µM [inhibitor, partial curve, poor fit]. In the case of `CCC(=O)N(C1CCOCC1)C1CCN(S(=O)(=O)c2ccccc2)CC1`, the “activity change, negative = cytotoxicity” value is reported as inactive: -3.15%. In the case of `O=C1NCc2ccccc2CC12CCN(C/C=C/c1ccccc1)CC2`, the Potency is reported as inconclusive: 89.1 µM [inhibitor, partial curve]. With `O=C1CC2(CCN(C(=O)c3ccc4c(c3)OCO4)CC2)Oc2cc(Cl)ccc21` the Potency was active: 44.7 µM. In the case of `Cc1ccc(Nc2ccnc(N3CCN(C(=O)Cc4ccc(F)cc4)CC3)n2)cc1`, the Potency is reported as inconclusive: 28.2 µM [inhibitor, full curve, poor fit]. For `CCN1CC(c2ccccc2)CC2(CCN(c3cc(N)ncn3)CC2)C1` (stereo not drawn), the Potency was inconclusive: 44.7 µM [inhibitor, partial curve, poor fit]. In the case of `Cc1noc(C)c1S(=O)(=O)N[C@@H]1C[C@H](Cn2cc(-c3cccnc3)nn2)[C@@H](O)[C@H]1O`, the Potency is reported as active: 39.8 µM. For `Cc1nc(N2CCC(NC(=O)c3ccsc3)CC2)cc(C(F)(F)F)n1`, the Potency was inconclusive: 15.8 µM [inhibitor, full curve, poor fit]. With `CCCNC(=O)C(C)(C)Oc1nn(Cc2ccccc2)c2ccc(COC)cc12` the Potency was inconclusive: 112 µM [inhibitor, partial curve]. For `CN1CCC(NC(=O)c2cccc3c2CCN3C(=O)Nc2ccccc2)CC1`, the “activity change, negative = cytotoxicity” value was inactive: -8.01%. With `Cc1noc(C)c1C(=O)NC1CCCc2c1[nH]c1ccc(F)cc21` (stereo not drawn) the Potency was inconclusive: 39.8 µM [inhibitor, partial curve, poor fit]. For `Cc1c(Cl)cccc1NC(=O)Cn1c(C)cc2nc3n(c(=O)c21)CCCCC3`, the “activity change, negative = cytotoxicity” value was inactive: -23.8%. With `NC(=O)c1ccccc1OCC(=O)N1CC(CNc2ccccc2)C2(C1)CN(c1ccccc1)C2` (stereo not drawn) the Potency was inconclusive: 28.2 µM [inhibitor, full curve, poor fit]. For `CCC(CC)C(=O)NC1CCN(c2cnn(Cc3ccccc3)c(=O)c2)CC1`, the “activity change, negative = cytotoxicity” value was inactive: -14.3%. For `Cc1ccccc1-c1nc(C2CC(=O)N(c3ccc(F)c(Cl)c3)C2)no1` (stereo not drawn), the Potency was inconclusive: 70.8 µM [inhibitor, partial curve, poor fit]. For `CCCCCNC(=O)c1cc(-c2cccc(OC)c2)nc2c1cnn2C`, the Potency was inconclusive: 28.2 µM [inhibitor, full curve, poor fit]. In the case of `N#Cc1cccc(C(=O)Nc2ccc([C@H]3OCC(=O)N(Cc4ccc(F)cc4)[C@@H]3CO)cc2)c1`, the Potency is reported as inconclusive: 79.4 µM [inhibitor, partial curve, poor fit]. With `CCc1[nH]c2c(CNC(=O)c3c(C)cc(C)n(C)c3=O)cc(F)cc2c1C` the “activity change, negative = cytotoxicity” value was inactive: -0.999%. With `CN1CCC(CNc2ncc(C(C)(C)C(=O)O)c(N3CCOCC3)n2)C1` (stereo not drawn) the “outcome” value was “inactive”. In the case of `Cc1ccc(C(=O)N(C)C2CCc3nn(CC4CC4)c(=O)n3CC2)c(=O)[nH]1` (stereo not drawn), the “outcome” value is reported as “inactive”. With `CCc1cccc2c(C(CC(=O)NCCc3ccc(OC)c(OC)c3)c3ccccc3OC)c[nH]c12` (stereo not drawn) the Potency was active: 35.5 µM. In the case of `Cc1ccc(CN2C(=O)OC(c3cccc(NC(=O)Cc4ccccc4)c3)C2C(=O)NCC(C)C)cc1` (stereo not drawn), the Potency is reported as inconclusive: 79.4 µM [inhibitor, partial curve]. For `COC(=O)CNC(=O)C1CCN(c2nc3ncccc3o2)CC1`, the “activity change, negative = cytotoxicity” value was inactive: 4.4% [at 172 µM]. In the case of `COc1cccc(-c2ccc(C(=O)NCCNC(=O)c3ccc(Cl)nc3)cc2)c1`, the Potency is reported as inconclusive: 89.1 µM [inhibitor, single point]. For `Cc1ccc(-c2cc3c(=O)n(CCNC(=O)Cc4c[nH]c5ccccc45)ccn3n2)cc1C`, the Potency was inconclusive: 89.1 µM [inhibitor, single point]. For `O=C(NCc1cccs1)C1CCCN(Cc2cccc(-c3cccs3)c2)C1` (stereo not drawn), the Potency was active: 44.7 µM. For `FC(F)(F)c1cccc(Nc2cnc3ccc(-n4ccnc4)nn23)c1`, the Potency was inconclusive: 79.4 µM [inhibitor, partial curve]. In the case of `Cc1noc(C)c1CN1CCC2(CC1)COCCN2C(=O)OCc1ccccc1`, the Potency is reported as inconclusive: 100 µM [inhibitor, partial curve]. With `Cn1ncc2c(C(=O)NC3CCCC3)cc(-c3ccc(Cl)nc3)nc21` the “activity change, negative = cytotoxicity” value was inactive: -0.679%. In the case of `O=C1CCCCC(CNC(=O)c2ccc3ccccc3n2)N1` (stereo not drawn), the “activity change, negative = cytotoxicity” value is reported as inactive: -4.19%. In the case of `O[C@@H]1CC(CNCC2CCCC2)(COc2cccnc2)C[C@@H]1O` (stereo partly drawn), the “activity change, negative = cytotoxicity” value is reported as inactive: -2.48% [at 172 µM]. With `Cc1noc([C@@H]2CN(S(=O)(=O)c3ccc(Cl)s3)C[C@H]2C(N)=O)n1` the Potency was inconclusive: 70.8 µM [inhibitor, partial curve]. With `Cc1noc(C2CC3(CCN(C(=O)C(C)C)CC3)CN2C)n1` (stereo not drawn) the Potency was inconclusive: 100 µM [inhibitor, single point]. With `COc1cccc(CNC(=O)[C@@H]2C[C@@H](O)CN2C2CCN(C(=O)Cc3cccc(F)c3)CC2)c1` the “activity change, negative = cytotoxicity” value was inactive: -7.11%. For `CNC(=O)C1CCCCN1Cc1ccc(-c2cccs2)cc1` (stereo not drawn), the Potency was active: 28.2 µM.
% is scaled to controls: 0 for no effect and ±100 for the full control effect; potency is read from the fitted curve at half-maximal effect; tags tell the direction and shape of the fitted curve.
